# Data from PMC6919601, “Identification of Plasmodium dipeptidyl aminopeptidase allosteric inhibitors by high throughput screening” (PLoS ONE, 2019).
# Out of some 110,000 compounds screened, about 230 (0.21%) showed an effect of 50% or more. Some of the results follow.
# Biological target: DPAP1 (Plasmodium falciparum, UniProt Q8IIJ9)
# Experiment: primary screen, percent inhibition; read by cleavage of a fluorogenic dipeptide substrate; higher = more effect of the substance
# Design: species or system P. falciparum D10 trophozoite lysates; single well
# 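Further: 30 min substrate incubation versus DMSO and 10 µM JCP410 controls.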
# Sequence of DPAP1 (Q8IIJ9 whole entry, looked up): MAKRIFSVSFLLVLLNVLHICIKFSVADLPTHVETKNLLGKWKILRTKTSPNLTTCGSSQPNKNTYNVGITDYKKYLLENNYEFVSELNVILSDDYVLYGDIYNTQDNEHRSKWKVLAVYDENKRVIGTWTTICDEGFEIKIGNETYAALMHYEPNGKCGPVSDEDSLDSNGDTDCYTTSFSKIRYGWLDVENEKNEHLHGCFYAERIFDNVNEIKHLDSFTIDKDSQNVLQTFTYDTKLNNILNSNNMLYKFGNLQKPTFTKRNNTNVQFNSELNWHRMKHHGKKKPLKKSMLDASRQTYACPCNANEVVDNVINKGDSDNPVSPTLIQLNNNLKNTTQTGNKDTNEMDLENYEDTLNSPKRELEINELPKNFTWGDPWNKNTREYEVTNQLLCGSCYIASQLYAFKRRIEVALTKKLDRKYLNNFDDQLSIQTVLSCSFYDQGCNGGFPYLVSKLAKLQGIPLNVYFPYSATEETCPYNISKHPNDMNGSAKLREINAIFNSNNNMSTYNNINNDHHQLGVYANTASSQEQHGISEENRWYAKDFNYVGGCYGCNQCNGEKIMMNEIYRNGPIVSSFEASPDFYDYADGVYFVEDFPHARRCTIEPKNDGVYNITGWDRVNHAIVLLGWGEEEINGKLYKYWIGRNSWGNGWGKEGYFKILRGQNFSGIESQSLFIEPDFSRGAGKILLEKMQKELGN
row,SMILES,% Inhibition @ 10 uM [%]
1,Cc1ccc(-n2nc(C)c(/C=C3\Sc4ccccc4C3=O)c2C)cc1,-2.14
2,COc1cc(/C=C2\S/C(=N/c3cccc(C(=O)O)c3)N(C)C2=O)cc(Br)c1OC,-2.8
3,COc1ccc(-c2c(C#N)c(N)nc3c2CCCC3)cc1OC,6.08
4,COCCCNC(=O)c1ccc2c(c1)c(C)c(C)n2C,3.78
5,CC(C)Oc1ccc(C2CC(=O)N3C(=C2C#N)SCC3(O)c2ccc(F)cc2)cc1 (stereo not shown),3.24
6,CC(C)C[C@H](NC(=O)c1cc(-c2ccccc2)c(-c2ccccc2)s1)C(=O)NCC#N,1.71
7,Cc1ccc(S(=O)(=O)NCC(=O)NCc2ccccc2Cl)cc1,-3.45
8,CC1(C)CCCC2=C1CC1C(=O)NC(=O)C1C2 (stereo not shown),-0.833
9,COc1ccc(-n2c(S)nnc2CN2CCSCC2)cc1,-0.582
10,Cc1csc(-c2ccc(C(=O)N[C@@H](CC(C)C)C(=O)NCC#N)cc2)c1,-4.72
11,O=C(O)CCC(=O)Nc1ccc(-c2nc3ccccc3[nH]2)cc1,-2.55
12,O=C1c2ccncc2C(=O)N1Cc1ccccc1,1.93
13,Cc1ccc(CN2C(=O)N/C(=C/c3ccccc3F)C2=O)cc1,-5.44
14,Clc1ccc(CN2CCN(Cc3ccncc3)CC2)cc1,5.6
15,CN(C)CCOC(c1ccccc1)c1ccc(Cl)cc1 (stereo not shown),-1.69
16,N#Cc1c(N2C(=O)c3ccccc3C2=O)sc2c1CCCC2,-4.75
17,COc1ccc(N(CC(=O)Nc2cccc(Cl)c2)S(C)(=O)=O)cc1Cl,-1.04
18,COCc1c(CN)cnc(C)c1N,-0.424
19,O=C(Cn1c(=O)n(Cc2ccc3c(c2)OCO3)c(=O)c2oc3ccccc3c21)NCc1ccccc1,1.95
20,CC(=O)N1CCN(Cc2ccc(Cl)c(Cl)c2)CC1,-1.41
21,CC(=O)Nc1cccc(Nc2nc(N3CCCCC3)nc(N(c3ccccc3)c3ccccc3)n2)c1,10.4
22,COc1cccc(-c2nc(CSCC(=O)NCCN3CCCC3)c(C)o2)c1,-1.05
23,COC(=O)N1CCc2cc(OC)c(OC)cc2C1c1ccc(OC)c(OC)c1 (stereo not shown),-2.85
24,Cc1cc(OCC(=O)Nc2nccs2)cc(C)c1Cl,1.08
25,Oc1[nH]nc2ccc(Cl)cc12,-1.71

row,SMILES,% Inhibition @ 10 uM [%]
1,CC(C)c1ccc(CN2CCCC(O)C2)cc1 (stereo not shown),-2.56
2,Cc1ccccc1N1CCN(CCC(=O)Nc2ccc(F)cc2)CC1,-2.82
3,CN1CCCN(Cc2ccc3c(c2)OCO3)CC1,-2.7
4,Cc1ccc(-c2noc(CCC(=O)Nc3cc(C)ccn3)n2)cc1,0.738
5,CCCNC(=O)CN1C(=O)NC2NC(=O)NC21 (stereo not shown),-7.46
6,Cc1ccc(NC(=O)c2cc3c(C)nn(-c4ccccc4)c3s2)cc1,-5.26
7,O=C(NCCc1cc2ccccc2[nH]1)c1ccc2snnc2c1,-0.0235
8,NC(=O)C1C(=O)NC2=C(CCCC2)C1c1ccccc1 (stereo not shown),-4.8
9,Cc1ccc(CCNc2ccc3ccccc3c2)cn1,4.22
10,O=C(O)COc1ccccc1C=C1C(=O)c2ccccc2C1=O,1.75
11,COC(=O)CN(C)C1CCS(=O)(=O)C1 (stereo not shown),-2.15
12,CCOC(=O)c1c(C)[nH]c(C)c1S(=O)(=O)N(C)CC(=O)NCc1ccccc1Cl,0.00978
13,C#CCSc1nc2c(c(=O)n1-c1ccccc1)C1(CCCC1)Cc1ccccc1-2,1.8
14,CCCSC1=C(C#N)C(c2ccccc2Cl)C(C(=O)Nc2ccccc2)=C(C)N1 (stereo not shown),-3.77
15,CCN1CCN(Cc2ccc3c(c2)c2ccccc2n3CC)CC1,-6.36
16,CCc1ccccc1N(CC(=O)Nc1ccc(OC)cc1)S(C)(=O)=O,2.96
17,COc1ccc(C(=O)N2CCN(c3ccc4nnc(-c5ccc(F)cc5)n4n3)CC2)cc1OC,-8.58
18,COc1cc(CNCCO)cc(Cl)c1OCc1ccc(Cl)cc1Cl,-6.02
19,CCOC(=O)N1CCN(C(=O)C2CCC(CNc3nc(S)nc4ccccc34)CC2)CC1 (stereo not shown),5.12
20,O=C1N/C(=C/c2ccc(O)c(Cl)c2)C(=O)N1c1ccc(Cl)cc1,-0.297
21,CCC1SC(NC(=O)C(Cc2ccccc2)N2C(=O)c3ccccc3C2=O)=NC1=O (stereo not shown),2.56
22,COc1cc(-c2ncnn2-c2ccc(Br)cc2F)cc(OC)c1OC,-1.36
23,COc1ccc(CCNC(=O)CCc2c(C)nc3c(c(C)nn3C(C)(C)C)c2C)c(OC)c1OC,2.93
24,CCCn1cnn2c(=O)cc(C)nc12,-1.64
25,CCOc1cc(/C=C2/SC(=O)NC2=O)cc(Cl)c1OCC,-2.99

row,SMILES,% Inhibition @ 10 uM [%]
1,CC[C@H](NC(=O)[C@@H](NC(=O)c1ccc(-c2ccccc2Cl)cc1)C1CCCCC1)C(=O)c1nnc(-c2ccccc2)o1,1.35
2,O=C(NCCc1ccccc1)/C(=C/c1ccc2c(c1)OCO2)NC(=O)c1cccc(Br)c1,-4.49
3,O=C1/C(=C/c2ccccc2F)C(c2ccccc2)=NN1c1ccc([N+](=O)[O-])cc1,-3.62
4,Cc1ccccc1OCCOc1ccc(Oc2nc(N(C)C)nc(N3CCCC3)n2)nn1,-3.08
5,CCCC(C)C1(CC)C(=O)N=C(Nc2ccccc2OC)NC1=O (stereo not shown),6.43
6,CCc1ccc(NC(=O)c2cc([N+](=O)[O-])cc([N+](=O)[O-])c2)cc1,0.827
7,CC(NC(=O)C1CCN(S(C)(=O)=O)CC1)c1ccccc1 (stereo not shown),0.387
8,C=C(C)CSc1nc2c(c(=O)[nH]c(=O)n2C)n1CC(=C)C,-5.14
9,CCN(CCN(C)C)Cc1cccc(Br)c1,-1.78
10,Cc1cc(C)c(NC(=O)c2cnn(C)c2)c(C)c1,-7.9
11,O=C(C1Cc2ccccc2O1)N1CCCCC1 (stereo not shown),-0.856
12,CN1CCN(C(=O)Cc2ccc(Cl)cc2)CC1,0.51
13,CCn1cc(/C=C2/NC(=O)N(CC(=O)Nc3cccc(C)c3)C2=O)c2ccccc21,7.54
14,CC1=C(C(=O)Nc2cccc(C)c2C)C(c2cccc(Cl)c2)NC(=O)N1 (stereo not shown),-5.69
15,Cc1nn(CCCC(=O)NC(C)c2ccccc2)c(=O)c2nn(-c3ccccc3)c(C)c12 (stereo not shown),-5.74
16,CC(C)(C)c1ccc(Oc2nc3ccccn3c(=O)c2/C=C(\C#N)C(=O)N2CCCCC2)cc1,18.4
17,Cc1ccc(CSc2nc3nccnc3c(=O)n2Cc2ccc(F)cc2)cc1,-4.05
18,COc1ccc(NC(=O)CN(c2ccc(F)cc2)S(=O)(=O)c2ccccc2)c(OC)c1,-12.1
19,CCN(CC)CCN1C(=O)c2ccccc2NC1c1ccc(F)cc1 (stereo not shown),-10.9
20,O=C1N=C(Nc2ccc(O)cc2)S/C1=C\c1ccccc1,-6.25
21,CC1CCc2c(sc(NC(=O)c3cccnc3Cl)c2C#N)C1 (stereo not shown),-0.725
22,O=C(Nc1cnn(Cc2ccc(F)cc2)c1)c1ccc(Br)cc1,-5.41
23,Cn1cc(C=C2C(=O)NC(=O)NC2=O)c2ccccc21,1.24
24,CC(=O)Nc1cccc(C2=CC(c3cccs3)n3ncnc3N2)c1 (stereo not shown),2.01
25,O=C(O)C1CCCCC1C(=O)Nc1nc(-c2ccccc2)cs1 (stereo not shown),0.408

row,SMILES,% Inhibition @ 10 uM [%]
1,COc1ccc(-c2csc(/C(C#N)=C/c3cccc4ccccc34)n2)cc1,-0.268
2,COC(=O)C(Cc1ccccc1)NC(=O)c1ccc(Cl)cc1 (stereo not shown),2.94
3,Cc1ccc(/C=C2\C(=O)NC(=S)N(c3ccc(Cl)cc3Cl)C2=O)o1,10.6
4,NC(=O)c1cc(S(=O)(=O)N2CCN(Cc3ccc4c(c3)OCO4)CC2)cs1,0.706
5,O=C(CC1COc2ccccc2O1)NCCc1ccccc1 (stereo not shown),2.44
6,CCOCCCNC(=O)C(c1ccccc1)N(Cc1cccs1)C(=O)c1ccc2c(c1)OCO2 (stereo not shown),2.84
7,CCc1ccc(OCC(=O)Nc2ccc(S(=O)(=O)N3CCCCC3)cc2)cc1,2.79
8,COc1ccc(S(=O)(=O)N(CC(=O)Nc2ccc(F)cc2)c2cccc(Cl)c2)cc1,-0.95
9,CCN1CCC(C#N)(NC(=O)[C@H](CC(C)C)NC(=O)OCc2ccccc2)CC1,-6.98
10,CCc1cccc(CC)c1C(O)c1cccnc1 (stereo not shown),0.343
11,c1nc(N2CCOCC2)c2sc3nc(N4CCOCC4)c4c(c3c2n1)CCCC4,3.73
12,O=C(c1ccco1)N1N=C(c2ccco2)CC1c1ccco1 (stereo not shown),-4.62
13,C/C(=C1\C(=O)N(c2nc3ccccc3s2)N=C1C(F)(F)F)N1CCN(C)CC1,2.69
14,CSc1cccc(NC(=O)C2CCN(S(=O)(=O)c3ccccc3)CC2)c1,4.28
15,C=CCOc1ccc(C2CC(=O)Oc3c2c(=O)oc2ccccc32)cc1 (stereo not shown),-4.04
16,CS(=O)(=O)N1CCCC(C(=O)N2CCc3ccccc3C2)C1 (stereo not shown),3.79
17,COc1ccccc1N1CCN(C(=O)C(C)Oc2cccc(Cl)c2)CC1 (stereo not shown),3.32
18,O=C(Nc1ccc(Cl)cc1C(=O)N1CCCCCC1)c1ccco1,-3.1
19,CC1=C(C(=O)OCc2ccccc2)C(c2ccc(C)cc2)C2=C(O)CCCC2=N1 (stereo not shown),10.2
20,O=C(CN1C(=O)c2cccc3cccc1c23)Nc1ccc(Oc2ccccc2)cc1,1.88
21,Cc1cc(C)c(C#N)c(SCCC(=O)NCCc2ccccc2)n1,-0.994
22,COc1ccc(C(=O)N2CCCC(C(=O)N3CCCCCC3)C2)cc1 (stereo not shown),0.565
23,CC1CCC(N2CCCC(C(N)=O)C2)C1 (stereo not shown),-3.5
24,CCOC(=O)c1c(NC(=O)c2nnc(O)c3ccccc23)sc(C)c1C,2.57
25,Cc1cc(-n2c(SCC(=O)NC3CCCCC3)nc3nnc(C)c-3c2N)ccc1Cl,-3.78
